According to paper PMC3198734 (PLoS ONE, 2011):

Assays:
[1] = system: A/Puerto Rico/8/1934 (H1N1) virus; type: in vivo, BALB/c mice; settings: for survival compared with saline-treated infected mice: 14 days
[2] = system: A/Puerto Rico/8/1934 (H1N1) virus; type: in vivo, BALB/c mice
[3] = system: Neisseria gonorrhoeae (FA19); type: cell-based; settings: data not shown
[4] = system: Staphylococcus aureus (COL); type: cell-based; settings: data not shown
[5] = system: A/Puerto Rico/8/1934 (H1N1) virus; settings: plaque assay in MDCK-L cells with trypsin; for effect on virus titer in vitro: PR/8 incubated with peptide for 1 hour at room temperature in DMEM
[6] = female Balb/c mice, 10 MLD50 PR/8 intranasal day 0, nebulized 200 µl of 500 µg/ml once daily day -1 to day 7, monitored 14 days, groups of 5
[7] = female Balb/c mice, 10 MLD50 PR/8 intranasal, nebulized 200 µl of 500 µg/ml once daily day -1 to day 7, Kaplan Meier, log rank test

Compound	body weight loss compared with saline-treated infected mice [1, 6]	survival compared with saline-treated infected mice [1, 7]	lung virus titer at 3 days post infection compared with control-treated mice ([2]; 10 MLD50 PR/8 intranasal, nebulized 200 µl of 500 µg/ml once daily day -1 to day 2, euthanized day 3, plaque assay)	antimicrobial activity of the preparation [3]	antimicrobial activity of the preparation [4]	effect on virus titer in vitro [5]	maximum weight loss observed ([1]; female Balb/c mice, 10 MLD50 PR/8 intranasal, nebulized 200 µl of 500 µg/ml once daily day -1 to day 7, monitored 14 days) [%]	survival (mice survived) ([1]; female Balb/c mice, 10 MLD50 PR/8 intranasal, nebulized 200 µl of 500 µg/ml once daily day -1 to day 7, monitored up to 14 days post infection, groups of 5)	reduction in lung virus titer at 3 days post infection ([2]; 10 MLD50 PR/8 intranasal, nebulized 200 µl of 500 µg/ml once daily day -1 to day 2, euthanized day 3, compared to control-treated mice)	reduction in virus titer in vitro ([5]; PR/8 incubated with physiologically relevant concentrations of peptide for 1 hour at room temperature in DMEM)	survival compared with saline-treated infected mice [1]	body weight loss compared with saline-treated infected mice ([1]; mouse, in vivo)	reduction in lung virus titer at 3 days post infection ([2]; mouse, in vivo)	maximum weight loss observed ([1]; mouse, in vivo) [%]	survival (mice survived) ([1]; mouse, in vivo)	lung virus titer at 3 days post infection compared with control-treated mice ([2]; mouse, in vivo)
RGGRLCYCRRRFCVCVGR-NH2 (also: bicyclic or more (positions not given here)) [Protegrin-1, porcine neutrophil-derived cathelicidin peptide with two disulfide bridges]	lost weight to the same extent as the control-treated animals	did not show any statistically significant increase in survival	did not show any statistically significant increase in survival (Figure 2E), or reduction in lung virus titers	confirmed	confirmed	did not demonstrate any anti-influenza activity										
LLGDFFRKSKEKIGKEFKRIVQRIKDFLRNLVPRTES [LL-37]	significantly decreased body weight loss	significant increase in survival		confirmed	confirmed		~20	approximately 60%	70-80%	approximately 90%						
GLLRKGGEKIGEKLKKIGQKIKNFFQKLVPQPEQ [mCRAMP]				confirmed	confirmed	significant decrease in virus titer					significantly enhanced survival	lost less weight	70–80%			
CC(=O)N[C@H]1[C@H]([C@H](O)[C@H](O)CO)OC(C(=O)O)=C[C@@H]1N=C(N)N [zanamivir, reference compound]											significant increase in survival	significantly decreased body weight loss		~20	approximately 60%	
RSLEGTDRFPFVRLKNSRKLEFKDIKGIKREQFVKIL [sLL-37, reference compound]						no effect					either died or were required to be euthanized due to severe disease	severe weight loss				no effect

Like-named read-outs stand apart in the source and are kept apart here. Where no end group is shown, it is not given here.
